# Measured values as given in paper PMC4336329 (PLoS ONE, 2015).
# Hit rate of the full screen: of about 310,000 compounds, about 2,200 (0.71%) showed an effect of 50% or more. Effects have a minus sign here. The list shows a part of the results.
# Target: human ether-à-go-go-related gene (hERG) potassium channel (human, UniProt Q12809)
# Test: primary screen, population patch clamp on CHO cells stably expressing hERG
# human ether-à-go-go-related gene (hERG) potassium channel, sequence (Q12809 whole entry, looked up): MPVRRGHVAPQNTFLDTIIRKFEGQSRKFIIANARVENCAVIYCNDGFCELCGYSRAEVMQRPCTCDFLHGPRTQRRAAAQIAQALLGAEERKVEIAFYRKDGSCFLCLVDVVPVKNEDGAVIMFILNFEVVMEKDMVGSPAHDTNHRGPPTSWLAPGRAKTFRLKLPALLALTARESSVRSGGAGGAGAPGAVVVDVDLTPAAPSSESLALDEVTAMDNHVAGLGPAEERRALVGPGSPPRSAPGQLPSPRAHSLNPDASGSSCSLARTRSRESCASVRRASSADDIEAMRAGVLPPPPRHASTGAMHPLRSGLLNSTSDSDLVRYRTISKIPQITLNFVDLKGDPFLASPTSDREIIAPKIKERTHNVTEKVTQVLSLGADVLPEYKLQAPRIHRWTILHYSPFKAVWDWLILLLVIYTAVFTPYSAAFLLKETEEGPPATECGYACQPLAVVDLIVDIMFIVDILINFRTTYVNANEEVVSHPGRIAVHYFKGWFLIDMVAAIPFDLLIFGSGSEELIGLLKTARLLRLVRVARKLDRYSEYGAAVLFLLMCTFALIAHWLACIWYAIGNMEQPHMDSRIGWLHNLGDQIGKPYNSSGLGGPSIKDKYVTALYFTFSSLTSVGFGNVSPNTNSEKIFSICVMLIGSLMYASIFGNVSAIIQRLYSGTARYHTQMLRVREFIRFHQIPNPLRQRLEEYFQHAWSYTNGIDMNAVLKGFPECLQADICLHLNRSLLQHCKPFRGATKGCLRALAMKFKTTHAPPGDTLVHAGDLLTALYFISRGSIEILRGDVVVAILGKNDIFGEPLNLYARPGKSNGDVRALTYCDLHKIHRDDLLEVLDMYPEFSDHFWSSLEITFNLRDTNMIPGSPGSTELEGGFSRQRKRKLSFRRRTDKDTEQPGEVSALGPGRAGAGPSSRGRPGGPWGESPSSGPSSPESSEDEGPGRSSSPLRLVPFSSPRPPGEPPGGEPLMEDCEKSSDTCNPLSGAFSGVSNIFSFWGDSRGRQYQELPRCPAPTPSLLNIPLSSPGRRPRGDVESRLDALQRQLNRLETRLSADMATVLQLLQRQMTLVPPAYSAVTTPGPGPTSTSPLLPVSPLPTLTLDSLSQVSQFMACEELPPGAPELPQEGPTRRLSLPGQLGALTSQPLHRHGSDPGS
row,SMILES,"hERG current change (%, negative = inhibition) at 1uM"
1,COc1ccc(NC(=O)C2CCC(C(C)(C)C)CC2)cc1S(=O)(=O)N1CCCCC1 (stereo not shown),7.25%
2,COc1ccc(C2Oc3ccccc3N2C(C)=O)cc1 (stereo not shown),-3.32%
3,CN(CC(=O)Nc1ccc(F)cc1)C(=O)c1ccc(N2C(=O)CCC2=O)cc1,-0.164%
4,O=C(NCc1ccco1)c1ccccc1O,13.7%
5,O=C(COC(=O)c1ccccc1-n1cnnn1)c1ccc(F)cc1,-1.13%
6,Cc1cc(C)c2ccc3c(C)c(C)nc3c2[nH]1,7.15%
7,Cc1cc(C)c(S(=O)(=O)NCCSCc2ccco2)c(C)c1,14.6%
8,CCOc1ccccc1N,7.5%
9,COc1ccc(-n2c(SCCC#N)nnc2-c2cc(Cl)ccc2OC)cc1Cl,16%
10,O=C(c1cc2cc(F)ccc2[nH]1)N1CCC2(CC1)OCCO2,9.92%
11,COP(=O)(OC)C(Nc1ccccn1)c1ccccc1 (stereo not shown),22.7%
12,O=C(CSc1nnc(CNC(=O)c2c(F)cccc2Cl)o1)NCc1ccc2c(c1)OCO2,-18.9%
13,CCCCC(CC)C(=O)Nc1cc(=O)[nH]c2nc3ccccc3n12 (stereo not shown),13.2%
14,O=C(NCc1ccc(C(=O)O)cc1)OCc1ccccc1,8.25%
15,O=C(CSCc1cnn(-c2ccccc2)c1-n1cccc1)NCCN1CCOCC1,1.44%
16,Cc1ccc(OCC(=O)NC2CCCC(C)C2C)c([N+](=O)[O-])n1 (stereo not shown),18.3%
17,COc1ccc2cc3c(N)c(C(=O)N4CCCC4)sc3nc2c1,-9.27%
18,CC(C)c1ccc(-n2cnn(-c3ncccc3[N+](=O)[O-])c2=O)cc1,3.95%
19,CCOc1cc2[nH]c(=O)n(CCCCC(=O)N3CCCCCC3)c(=O)c2cc1OCC,8.63%
20,CN(C)CCSc1nc(O)c(-c2ccccc2)c(=O)n1-c1ccccc1,10.6%
21,N#Cc1cn(CC(=O)N2CCCc3ccccc32)c2ccccc12,4.08%
22,COc1ccc(NC(=O)c2cc3c(-c4ccc(OC)c(OC)c4)nn(C)c3s2)cc1OC,5.64%
23,CCc1sc(C(=O)NCCc2ccc(S(N)(=O)=O)cc2)cc1C,4.22%

row,SMILES,"hERG current change (%, negative = inhibition) at 1uM"
1,C/C(N)=C(/C#N)C(=O)CSc1nnc(Nc2ccccc2)s1,12.2%
2,COc1ccc(C(=O)NNC(=S)NC(=O)c2ccc(OC)cc2)cc1,20.2%
3,O=C(N/N=C/c1ccc(OC(F)F)cc1OC(F)F)NC1CCCCC1,14.9%
4,CCc1ccccc1NC(=S)N1CCN(c2ccccc2F)CC1,-0.145%
5,COC(=O)Cc1cccc2c(=O)c3ccccc3oc12,38%
6,CC1CCN(C(=O)Cn2cc3c(n2)CCCC3)CC1,2.13%
7,CC1CN(CC(O)COc2ccccc2C(C)(C)C)CC(C)O1.Cl (stereo not shown),1.91%
8,COCCn1c(=O)[nH]c2cc(C(=O)NCc3cccnc3)ccc2c1=O,-2.73%
9,CC(Sc1nnc(-c2ccco2)o1)C(=O)NCCC1=CCCCC1 (stereo not shown),7.17%
10,COc1ccc(CCNC(=O)CSc2nnc(CNC(=O)c3cccs3)o2)cc1OC,3.28%
11,COc1ccc(-c2cc(C(=O)N3CCN(C(c4ccccc4)c4ccccc4)CC3)no2)cc1OC,-5.49%
12,CCOC(=O)c1[nH]c(C)c(C(=O)OCC(=O)N(Cc2ccccc2)C(C)C)c1C,2.82%
13,Cc1cc(S(=O)(=O)NCCC2=CCCCC2)ccc1Br,-3.15%
14,COC(=O)[C@@]1(Cc2ccc(OC)cc2)[C@H]2c3cc(C(=O)N(C)C)n(CCc4ccc(OC)c(Br)c4)c3C[C@H]2CN1C(=O)c1ccccc1,18%
15,CN(C(=O)COC(=O)c1ccc(NS(=O)(=O)c2cccs2)cc1)C1CCCCC1,0.305%
16,CC(=O)c1ccc(NC(=O)CCC(=O)OCC(F)(F)C(F)F)cc1,-1.69%
17,Cc1cc(C)c(NC(=O)COC(=O)C2=COCCO2)c(Cl)c1,14.2%
18,O=C(O)CSCc1ccc(Cl)cc1,13.6%
19,O=C(c1c[nH]c2ccccc12)C(Cl)c1ccccc1 (stereo not shown),13.8%
20,C=CCOc1nc2c(c(=O)n(Cc3ccc(Cl)cc3)c(=O)n2C)n1C,9.92%
21,CCC1(C(=O)OC)NC(c2ccco2)C2C(=O)N(c3ccccc3)C(=O)C21 (stereo not shown),7.48%
22,O=C(c1ccc(Cl)s1)N1CCN(C23CC4CC(CC(C4)C2)C3)CC1,5.12%
23,Clc1ccc(-c2nnc(-c3ccco3)o2)cc1,9.8%

row,SMILES,"hERG current change (%, negative = inhibition) at 1uM"
1,COc1ccc(-c2csc(NCc3ccco3)n2)cc1C,12%
2,O=C(OCC(=O)N1CCN(c2ccccc2)CC1)c1cc(Cl)ccc1[N+](=O)[O-],-6.32%
3,C=CCN=C(C)C1=C(O)C(C)OC1=O (stereo not shown),17.1%
4,O=C(CN1CCCCC1)NNC(=O)c1ccc([N+](=O)[O-])cc1,11.4%
5,Cc1ccccc1-n1cc(C(=O)c2cc(Cl)ccc2O)cc(C#N)c1=O,11.1%
6,CC(Nc1nc(=S)nc(Nc2ccc(F)cc2)[nH]1)c1ccccc1 (stereo not shown),15.9%
7,O=C(CS(=O)c1ccc(F)cc1)Nc1ccccc1Cl (stereo not shown),12.7%
8,CCCCCn1c(CN2CCN(C(=O)OCC)CC2)nc2c1c(=O)n(C)c(=O)n2C,-3.02%
9,CCC/C(C)=C/c1ccc(CC)cn1,11.3%
10,COc1ccc(/C=N\NC(=O)c2ccc([N+](=O)[O-])c(C)c2)cc1COc1ccccc1C(N)=O,20.4%
11,N#CC1(P(=O)(c2ccccc2)c2ccccc2)CC1,1.28%
12,O=C(NCc1ccccc1C(F)(F)F)C1CC(O)CN1C(=O)Nc1ccccc1 (stereo not shown),15.8%
13,Cc1cccc(Nc2nnc(SCC(=O)c3c(N)n(C4CC4)c(=O)[nH]c3=O)s2)c1C,9.07%
14,O=C(Nc1ccc(C(F)(F)F)cc1)C1(c2ccccc2)CC1,5.32%
15,CC(C)(C)NC(=O)C(c1ccccn1)N(C(=O)C1CSC(=O)C1)c1cccc(F)c1 (stereo not shown),14.9%
16,Cc1cccc(OCC(=O)Nc2ccc(N3CCN(C(=O)c4ccco4)CC3)cc2)c1,-6.73%
17,O=C(O)/C=C/C(=O)Nc1ccc2nccnc2c1,18.4%
18,OCCNc1nc(-c2ccccc2)nc2c1oc1ccccc12,6.62%
19,COc1ccc(C)cc1Nc1n[n+](-c2ccccc2)c(-c2c(OC)ccc3ccccc23)s1.[Cl-],-7.05%
20,COc1ccc(OC)c(C2C(C(=O)c3ccc(C)o3)=C(O)C(=O)N2CCN2CCOCC2)c1 (stereo not shown),19.3%
21,O=c1cc(-c2ccc(O)c(O)c2)oc2cc(O)c(C3OC(CO)C(O)C(O)C3O)c(O)c12 (stereo not shown),5.2%
22,COc1ccc(CCNC(=O)Nc2ccc(F)cc2F)cc1OC,15.8%
23,Cc1ccc(NC(=O)N2CCCC2C(=O)NCC2CCCCC2)cc1 (stereo not shown),14.1%

row,SMILES,"hERG current change (%, negative = inhibition) at 1uM"
1,CSc1nc2ccsc2c(=O)n1-c1ccccn1,18.5%
2,CCCCCNC(=O)CN(c1ccc2c(c1)OCO2)S(C)(=O)=O,10.7%
3,CCC1=NC(c2ccccc2OC)N(O)C1(C)C (stereo not shown),9.36%
4,O=C(N/N=C/c1cc(O)ccc1[N+](=O)[O-])c1ccc2c(c1)OCCO2,0.582%
5,CCCc1ccc(OCC(O)CN2CCCC2)cc1.Cl (stereo not shown),7.45%
6,O=C(Nc1ccc(S(=O)(=O)NC2=NCCCCC2)cc1)c1cc(S(=O)(=O)N2CCOCC2)ccc1F,-0.49%
7,COc1cc2c(cc1OC)C(C)N(C(=O)c1c(C)noc1C)CC2 (stereo not shown),11.1%
8,CSc1ccc(S(=O)(=O)N2CCCC2)cc1,14.7%
9,CCN(CC)c1ccc(/C=N/Nc2ccccc2)c(O)c1,7.57%
10,O=C(Nc1cccc2nsnc12)C1CC(=O)N(c2ccccc2)C1 (stereo not shown),3.06%
11,CCCCCn1c(=O)c(F)cn(Cc2ccc(OC)c([N+](=O)[O-])c2)c1=O,2.31%
12,Cc1cc(NC(=O)CSc2nc3ccccc3n2CC(=O)N2CC(C)CC(C)C2)no1 (stereo not shown),13.6%
13,Cc1c(C)[n+](=O)c(-c2ccc(Br)cc2)c(C)n1[O-],12.7%
14,Cc1nc2ccccn2c1C(=O)NCCCN1CCOCC1,10.8%
15,Cl.c1cncc(CNC2CCCC2)c1,9.76%
16,CN1C(=O)N(C)C2CC1N(C)C(=O)N2C,9.16%
17,O=C(O)C(=O)O.O=[N+]([O-])c1ccccc1CN1CCN(Cc2c[nH]c3ccccc23)CC1,6.67%
18,CNC(=O)CSc1nccn1Cc1ccc(Cl)cc1,-1.52%
19,COc1ccc([N+](=O)[O-])cc1NC(=O)COC(=O)c1ccccn1,0.206%
20,O=C(N/N=C/c1ccccn1)c1ccc([N+](=O)[O-])cc1,24.3%
21,Cc1ccc(C(=O)OC2OC(=O)C(Cl)=C2N2CCOCC2)cc1 (stereo not shown),10%
22,CC(C)[C@H](NC(=O)N1c2ccccc2NC(=O)[C@@H]1C(C)C)C(=O)N1CCC[C@H]1C(=O)O,11.6%
